Holding throughout (test): ITC; 2.5-4 mM apo-IscU (injection syringe) titrated into 0.25-0.4 mM HscB (sample cell); 25 °C; 50 mM HEPES pH 7.5, 150 mM NaCl, 4 mM TCEP
What all share (details): both partners purified

The target of test [1] is T1, HscB(E104A) (E. coli, UniProt P0A6L9 1-171, E104A).
T1 construct: HscB, Escherichia coli, single alanine substitution; source: Escherichia coli, purified (DEAE-cellulose, size exclusion chromatography)
T1 sequence (looked up): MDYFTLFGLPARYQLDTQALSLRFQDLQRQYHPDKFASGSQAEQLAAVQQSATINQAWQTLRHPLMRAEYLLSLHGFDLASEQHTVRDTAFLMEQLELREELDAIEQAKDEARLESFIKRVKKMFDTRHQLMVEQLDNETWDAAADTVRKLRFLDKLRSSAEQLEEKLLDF

The target in test [2] is T2, HscB(R152A) (E. coli, UniProt P0A6L9 1-171, R152A).
T2 construct: HscB, Escherichia coli, single alanine substitution; source: Escherichia coli, purified (DEAE-cellulose, size exclusion chromatography)
T2 sequence (looked up): T1 sequence (looked up) with A104E, R152A

Test [3] concerns the target T3, HscB(S160A) (E. coli, UniProt P0A6L9 1-171, S160A).
T3 construct: HscB, Escherichia coli, single alanine substitution; source: Escherichia coli, purified (DEAE-cellulose, size exclusion chromatography)
T3 sequence (looked up): T1 sequence (looked up) with A104E, S160A

In test [4] the target is T4, HscB(E97A, E100A, E104A) (E. coli, UniProt P0A6L9 1-171, E97A | E100A | E104A).
T4 construct: HscB, Escherichia coli, triple alanine substitution; also called (E97A, E100A, E104A) substitution; source: Escherichia coli, purified (DEAE-cellulose, size exclusion chromatography)
T4 sequence (looked up): T1 sequence (looked up) with E97A, E100A

Test [5] concerns the target T5, HscB(T89A) (E. coli, UniProt P0A6L9 1-171, T89A).
T5 construct: HscB, Escherichia coli, single alanine substitution; source: Escherichia coli, purified (DEAE-cellulose, size exclusion chromatography)
T5 sequence (looked up): T1 sequence (looked up) with T89A, A104E

The target in test [6] is T6, HscB(M93A) (E. coli, UniProt P0A6L9 1-171, M93A).
T6 construct: HscB, Escherichia coli, single alanine substitution; source: Escherichia coli, purified (DEAE-cellulose, size exclusion chromatography)
T6 sequence (looked up): T1 sequence (looked up) with M93A, A104E

Test [7] addresses T7, HscB(L96A) (E. coli, UniProt P0A6L9 1-171, L96A).
T7 construct: HscB, Escherichia coli, single alanine substitution; Uniformly 15N-labelled for the NMR experiments; source: Escherichia coli, purified (DEAE-cellulose, size exclusion chromatography)
T7 sequence (looked up): T1 sequence (looked up) with L96A, A104E

Test [8] concerns the target T8, HscB(E97A) (E. coli, UniProt P0A6L9 1-171, E97A).
T8 construct: HscB, Escherichia coli, single alanine substitution; source: Escherichia coli, purified (DEAE-cellulose, size exclusion chromatography)
T8 sequence (looked up): T1 sequence (looked up) with E97A, A104E

Broadly, the stoichiometry N is a count of units in the complex or per binding partner.

Where a chain is given by its changes, count along the chain named.

B1: apo-IscU (natural protein, E. coli, UniProt P0ACD4 1-128, looked up)
chain: MAYSEKVIDHYENPRNVGSFDNNDENVGSGMVGAPACGDVMKLQIKVNDEGIIEDARFKTYGCGSAIASSSLVTEWVKGKSLDEAQAIKNTDIAEELELPPVKIHCSILAEDAIKAAIADYKSKREAK
notes: No tag is mentioned; purified by ion exchange and gel filtration, so probably untagged whole protein; source: Escherichia coli, purified (DEAE-cellulose, DEAE-Biogel, size exclusion chromatography)
For the molecule B1, the Ka in test [1] stood at 172000 M⁻¹; in test [2], 65000 M⁻¹; in test [3], 92000 M⁻¹; in test [4], 33000 M⁻¹; in test [5] it was 59000 M⁻¹; in test [6], 255000 M⁻¹. Moreover, the results for the Ka in test [7] and in test [8] were 5000 M⁻¹ and 173000 M⁻¹, respectively. Also, the dH is -2.8 kcal/mol in test [1]; -1.34 kcal/mol in test [2]; -1.58 kcal/mol in test [3]; -1.73 kcal/mol in test [4]; -1 kcal/mol in test [5]; -1.25 kcal/mol in test [6]. The dH in test [7] is -3.6 kcal/mol; in test [8], -2.6 kcal/mol. For the same molecule, the “stoichiometry N” value in test [1] amounted to 0.83; in test [2], 1.09; in test [3] it was 1.05; in test [4] it was 0.68; in test [5] it was 1.08; in test [6], 0.83. Besides, the “stoichiometry N” value in test [7] is 0.44; in test [8] it was 0.96.

Values taken from article PMC3040723, “Three hydrophobic amino acids in Escherichia coli HscB make the greatest contribution to the stability of the HscB-IscU complex” (BMC Biochemistry, 2011).
